Results published in PubChem BioAssay AID1030 (National Center for Advancing Translational Sciences (NCATS), 2008).
Among all 220,000 compounds or so, about 16,000 (7.3%) were called active. Inconclusive means that the source gave no clear call. Such entries were picked first, then a sample of the others. Calls come from the whole dose curve; as a rule, active = well fitted inhibition curve with a large enough effect (not every such curve was filed as active); inconclusive = small, poorly fitted or top-dose-only effect, or another doubt; inactive = no such curve, though single readings can be large or run the other way. Potencies of inconclusive entries are left out as doubtful fits.
Potency is the fitted concentration of half-maximal effect; tags give direction and shape of the fitted curve.

The compounds below were run against Aldehyde dehydrogenase 1A1 (Homo sapiens) (UniProt P00352) (assay: qHTS Assay for Inhibitors of Aldehyde Dehydrogenase 1 (ALDH1A1)). Conditions: Purified ALDH1A1, NADH fluorescence, propionaldehyde substrate; series mostly up to 75.3 µM.
UniProt P00352, sequence (P00352 whole entry, looked up): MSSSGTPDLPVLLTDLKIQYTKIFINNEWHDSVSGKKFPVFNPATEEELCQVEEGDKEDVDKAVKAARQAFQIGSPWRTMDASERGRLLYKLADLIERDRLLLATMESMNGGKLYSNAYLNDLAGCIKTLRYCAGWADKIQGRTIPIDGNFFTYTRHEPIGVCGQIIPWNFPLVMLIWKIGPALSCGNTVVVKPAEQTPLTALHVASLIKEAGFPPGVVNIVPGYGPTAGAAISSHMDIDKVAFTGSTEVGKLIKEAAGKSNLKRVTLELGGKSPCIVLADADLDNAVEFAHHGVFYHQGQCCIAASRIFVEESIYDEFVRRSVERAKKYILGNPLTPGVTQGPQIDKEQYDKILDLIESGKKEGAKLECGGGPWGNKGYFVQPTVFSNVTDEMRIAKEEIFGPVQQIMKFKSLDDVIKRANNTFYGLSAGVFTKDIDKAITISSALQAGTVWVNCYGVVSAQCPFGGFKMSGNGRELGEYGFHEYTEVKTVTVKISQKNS
`COc1ccc(C)cc1-n1nnnc1SCc1nc2ccccc2s1` was tested, and the Potency was active: 11.2 µM.
With `CC1=NN(c2cccc(Cl)c2)C(=O)C12CC(C)=C(C)CS2` (configuration not stated) the Potency was inconclusive [inhibitor, single point].
In the case of `Fc1ccc(Br)cc1C1C=C(c2ccc(Br)s2)Nc2ncnn21` (configuration not stated), the Potency is reported as inconclusive [inhibitor, single point].
`COc1ccc(C(C#N)Nc2ccc(C)cc2)cc1` (configuration not stated) was tested, and the Potency was inconclusive [inhibitor, single point].
For `CC(C)OC(=O)Cn1c(=O)sc2ccccc21`, the Potency was “inactive”.
For `Cc1c(NC(=O)Oc2ccccc2)sc(=S)n1C`, the Potency was inconclusive [inhibitor, single point].
In the case of `Cn1c(SCc2ccccc2F)nnc1-c1cnccn1`, the Potency is reported as “inactive”.
In the case of `Cc1ccc(C(C)NC(=O)c2c(C)noc2C)cc1C` (configuration not stated), the Potency is reported as “inactive”.
For `Cc1cc(-c2ccccc2)n(-c2cc(N/N=C/c3ccccc3O)ncn2)n1`, the Potency was “inactive”.
For `CC(Sc1nnc(C(F)(F)F)n1C)C(=O)Nc1ccc(S(N)(=O)=O)cc1` (configuration not stated), the Potency was “inactive”.
In the case of `Cc1nc(CNC(=O)c2cc(COc3ccc(F)cc3Cl)on2)cs1`, the Potency is reported as “inactive”.
`CC1(C)CC(=O)C2=C(C1)NC(=O)CC2C(=O)NCc1ccc(F)cc1` (configuration not stated) was tested, and the Potency was inconclusive [inhibitor, single point].
With `Cc1noc(C)c1COC(=O)c1cc(C)n(-c2ccccc2)c1C` the Potency was inconclusive [inhibitor, single point].
In the case of `CNC(=S)NNC(=O)c1ccc(=O)n(Cc2ccc(Cl)cc2Cl)c1`, the Potency is reported as inconclusive [inhibitor, partial curve].
For `CN(C(=S)Nc1ccc(SC(F)F)cc1)c1ccc(O)cc1`, the Potency was active: 6.31 µM.
For `CCSc1nnc(NC(=O)c2ccc3ccccc3n2)s1`, the Potency was inconclusive [inhibitor, single point].
`CCSc1nnc(NC(=O)CSc2nnc(Cc3cccn3C)n2CCc2ccccc2)s1` was tested, and the Potency was inconclusive [inhibitor, single point].
In the case of `CC(C)C(=O)N1CCN(c2ccccc2NC(=S)NC(=O)c2cccs2)CC1`, the Potency is reported as inconclusive [inhibitor, single point].
`Cc1ccc(C)c(CSc2nnc(-c3ccccn3)n2N)c1` was tested, and the Potency was active: 10 µM.
For `O=C(NCc1ccccc1)N1CCn2c(nc3ccccc32)C1`, the Potency was inconclusive [inhibitor, single point].
`CC1(C)CC(=O)C2=C(C1)OC(N)=C(C#N)C2c1cc2c(cc1[N+](=O)[O-])OCO2` (configuration not stated) was tested, and the Potency was “inactive”.
With `CCOc1ccc(-c2nnc(-c3cccnc3)o2)cc1OCC` the Potency was inconclusive [inhibitor, partial curve].
In the case of `O=C(N(c1ccccn1)c1ccccn1)C12CC3CC(CC(C3)C1)C2`, the Potency is reported as “inactive”.
With `CC(C)(C)C(=O)N1CCN(c2nc3ccccc3o2)CC1` the Potency was “inactive”.
For `O=C(NCc1ccc2c(c1)OCO2)c1ccc2c(c1)N(Cc1c(F)cccc1Cl)C(=O)CS2`, the Potency was inconclusive [inhibitor, single point].
With `CCCCc1cc(=O)oc2cc(C)cc(O)c12` the Potency was active: 8.91 µM.
`O=C(COC(=O)c1ccc(Cl)nc1)Nc1cc(S(=O)(=O)N2CCCCC2)ccc1Cl` was tested, and the Potency was inconclusive [inhibitor, single point].
With `CC(C)C[C@@H](CC(=O)N[C@@H](CCC(=O)O)CC(=O)O)NC(=O)[C@@H]1CNCC[C@H]1NC(=O)C[C@H](CCCN)NC(=O)C[C@H](Cc1c[nH]c2ccccc12)NC(=O)[C@@H]1CNCC[C@H]1N` the Potency was inconclusive [inhibitor, single point].
With `CCn1c(COc2ccc3c(c2)OCO3)nnc1SCC(=O)c1ccc(Cl)cc1` the Potency was “inactive”.
For `COc1ccc(C(=O)Nn2c(SCC(=O)N3CCC(C)CC3)nc3ccccc3c2=O)cc1`, the Potency was inconclusive [inhibitor, partial curve].
`CSc1nc(NCCOCCO)c2sc3nc(-c4ccco4)c4c(c3c2n1)CCC4` was tested, and the Potency was inconclusive [inhibitor, full curve].
With `Cc1nnc2ccc(-c3cccc(NC(=O)c4ccc(Cl)nc4)c3)nn12` the Potency was inconclusive [inhibitor, single point].
For `CC(C)(C)c1ccc(OCCOc2ccc(C(C)(C)C)cc2NC=O)c(NC=O)c1`, the Potency was “inactive”.
`Cc1noc(C)c1COC(=O)Cc1ccc(Br)cc1` was tested, and the Potency was “inactive”.
In the case of `O=C(CN1CCN(Cc2ccccc2)CC1)Nc1cccc(C(F)(F)F)c1`, the Potency is reported as “inactive”.
With `COc1ccc(CCNC(=O)Cc2ccc(OC)c(OC)c2)cc1OC` the Potency was “inactive”.
In the case of `O=C(CN1C(=O)/C(=C\c2ccc(F)cc2)Oc2ccccc21)NCc1ccco1`, the Potency is reported as inconclusive [inhibitor, full curve].
For `O=C(c1ccccc1Br)N1CCCC(c2nc(-c3cccs3)no2)C1` (configuration not stated), the Potency was inconclusive [inhibitor, single point].
With `Cc1cc(OCc2nn[nH]n2)c2c(-c3ccccc3)cc(=O)oc2c1` the Potency was inconclusive [inhibitor, partial curve].
In the case of `COCCn1c(N)c(C#N)c2nc3ccccc3nc21`, the Potency is reported as inconclusive [inhibitor, partial curve].
With `CC1(C)Cc2nc(N3CCOCC3)c(C#N)cc2CO1` the Potency was inconclusive [inhibitor, partial curve].
For `COc1cccc(NC(=S)/C(=C(\[O-])c2ccc(OC(F)F)cc2)[n+]2ccccc2)c1`, the Potency was active: 20 µM.
With `COC(=O)C1=C(C)N=C2SC(C)C(=O)N2C1c1cccs1` (configuration not stated) the Potency was inconclusive [inhibitor, single point].
`CCCC(=O)c1c[nH]c(C(=O)N2CCOCC2)c1` was tested, and the Potency was inconclusive [inhibitor, partial curve].
With `O=C(c1cc2c(cc1Br)OCCCO2)N1CCCCC1` the Potency was “inactive”.
In the case of `CC1(C)CC(=O)CC(=Nc2ccc(C(=O)O)cc2)C1`, the Potency is reported as inconclusive [inhibitor, single point].
With `Cc1sc2nc(CSc3nnc(Cc4cccs4)n3C3CCCCC3)[nH]c(=O)c2c1C` the Potency was inconclusive [inhibitor, single point].
For `Cc1ccc(Oc2nnc(-c3cccs3)c3ccccc23)cc1C`, the Potency was inconclusive [inhibitor, partial curve].
`CCN(CC)c1ccc(-c2nc3cnccc3n2C)cc1` was tested, and the Potency was inconclusive [inhibitor, single point].
In the case of `CCOC(=O)c1c(NC(=O)c2ccc(C)cc2)sc2c1CC(C)(C)OC2`, the Potency is reported as inconclusive [inhibitor, partial curve].
For `COC(=O)C1=C(C)N(C)C(=O)/C1=C\c1cccs1`, the Potency was inconclusive [inhibitor, single point].
In the case of `O=c1nc2s/c(=C\c3ccco3)c(=O)n2nc1Cc1ccc(F)cc1`, the Potency is reported as “inactive”.
For `Cc1ccc(CSc2nnc3nc(C)cc(C)n23)cc1`, the Potency was inconclusive [inhibitor, single point].
In the case of `O=C(C#Cc1ccccc1)c1cccc([N+](=O)[O-])c1`, the Potency is reported as inconclusive [inhibitor, partial curve].
In the case of `CN1CCN(CCC=C2c3ccccc3Sc3ccc(S(=O)(=O)N(C)C)cc32)CC1`, the Potency is reported as inconclusive [inhibitor, single point].
With `Cc1ccc(S(=O)(=O)NC(C)(C)CSc2ncccn2)cc1` the Potency was active: 17.8 µM.
With `CCC(C)NC(=O)CCn1c(-c2ccc(F)cc2)cc(C(C)=O)c1C` (configuration not stated) the Potency was inconclusive [inhibitor, single point].
For `O=C(O)c1cc(S(=O)(=O)N2CCCCCC2)c(Cl)cc1Cl`, the Potency was inconclusive [inhibitor, partial curve].
In the case of `CC1=C(/C=C/C(C)=C/C=C/C(C)=C\CO)C(C)(C)CCC1`, the Potency is reported as active: 25.1 µM.
For `CC(C)OCCCNC(=O)Nc1cccc2ccccc12`, the Potency was inconclusive [inhibitor, single point].
`Cc1cc(C)c2cc(CN(CC3CCCO3)C(=S)NCc3ccco3)c(=O)[nH]c2c1` (configuration not stated) was tested, and the Potency was active: 15.8 µM.
With `O=c1cc(O)c2ccccc2n1Cc1ccccc1` the Potency was inconclusive [inhibitor, partial curve].
For `O/N=C(\c1ccc(Cl)cc1Cl)c1ncc(C(F)(F)F)cc1Cl`, the Potency was inconclusive [inhibitor, partial curve, poor fit].
With `CN1C(=S)N(c2ccccc2)C(=O)/C1=C/c1ccco1` the Potency was active: 12.6 µM.
For `O=C(CN1CCOCCOCCOCC1)Nc1ccccc1`, the Potency was inconclusive [inhibitor, single point].
With `N#Cc1c(N2CCCC2)nc(N)c2c(N)nc(N3CCCC3)cc12` the Potency was inconclusive [inhibitor, partial curve].
In the case of `CCC(Sc1nc(C)cc(=O)[nH]1)C(=O)Nc1nc(-c2ccccc2)cs1` (configuration not stated), the Potency is reported as inconclusive [inhibitor, single point].
`COCC(C)NC(=O)c1ccc(N(C)C)cc1` (configuration not stated) was tested, and the Potency was active: 8.91 µM.
In the case of `COc1ccc(C)cc1C(=O)CCC(=O)Nc1ccccc1N1CCOCC1`, the Potency is reported as active: 28.2 µM.
`CC(=O)Nc1cc2nn(-c3ccccc3)nc2cc1Cl` was tested, and the Potency was inconclusive [inhibitor, partial curve].
In the case of `COCCN(CCOC)c1cc(C)c(C#N)c2nc3ccccc3n12`, the Potency is reported as inconclusive [inhibitor, partial curve].
With `CC1(C)Cc2c(C#N)c(N3CCN(C(=O)c4ccccc4)CC3)nc(Cc3ccccc3)c2CO1` the Potency was inconclusive [inhibitor, partial curve].
